Structures can show the parent of a compound that is named as a salt. Where two headings read alike, the source gives them in different places.
Tests used:
[1] = tested on: CD47 deficient (CD47 KO) Jurkat T cells; assay: cells; details: Homo sapiens, 48 h, read-out: AC50 (μM) CD47 KO
WT Jurkat cells [2] = assay: cells; details: Homo sapiens, 48 h, read-out: AC50 (μM) WT
WT Jurkat cells [3] = tested on: WT Jurkat cells
[4] = tested on: CD47 deficient (CD47 KO) Jurkat T cells
[5] = WT Jurkat cells, 48 hours, 10^-9 to 10^-4 M, CellTiter-Glo
[6] = CD47 KO Jurkat T cells, 48 hours, 10^-9 to 10^-4 M, CellTiter-Glo
[7] = log AC50 difference CD47 KO minus WT

| Structure (SMILES) | AC50 [1] [µM] | AC50 (WT Jurkat cells [2]) [µM] | Maximal Response WT (RLU) (WT Jurkat cells [3]; [5]) | Maximal Response CD47 KO (RLU) [4, 6] [RLU] | Δ LogAC50 CD47KO-WT [4, 7] | other results |
| --- | --- | --- | --- | --- | --- | --- |
| CC[C@@]1(O)C(=O)OCc2c1cc1n(c2=O)Cc2cc3c(CN(C)C)c(O)ccc3nc2-1 [Topotecan hydrochloride] | 2.09 | 0.0418 | 8.516 | 30.703 | 1.7 |  |
| N=c1ccn2c(n1)O[C@H]1[C@H](O)[C@@H](CO)O[C@H]12 [Cyclocytidine HCl] | 1.18 | 0.235 | 9.572 | 59.998 | 0.7 |  |
| C=C1[C@H](CO)[C@@H](O)C[C@@H]1n1cnc2c(=O)[nH]c(N)nc21 [Entecavir] | 4.69 | 0.332 | 7.89 | 63.062 |  |  |
| CN(C)CC[C@H](CSc1ccccc1)Nc1ccc(S(=O)(=O)NC(=O)c2ccc(N3CCN(Cc4ccccc4-c4ccc(Cl)cc4)CC3)cc2)cc1[N+](=O)[O-] [ABT-737] | 14.8 | 1.87 | 1.054 | 29.852 | 0.9 |  |
| CC[C@@]1(O)C(=O)OCc2c1cc1n(c2=O)Cc2cc3ccccc3nc2-1 [Camptothecin] | 0.186 | 0.0094 | 9.64 | 37.178 | 1.3 | cytotoxicity in CD47 deficient versus wild-type Jurkat cells (FIGS. 14, 15) ([4]; 48 hours, increasing concentrations): protected |
| Nc1ccccc1NC(=O)c1ccc(CNC(=O)OCc2cccnc2)cc1 [Entinostat] | 2.64 | 0.833 |  |  | 0.5 |  |
| CC(C)(C)c1[nH]cnc1/C=c1\[nH]c(=O)/c(=C/c2ccccc2)[nH]c1=O [Plinabulin] | 2.15 | 0.191 |  |  | 1.05 |  |
| Sc1ncnc2nc[nH]c12 [6-mercaptopurine] | 1.66 | 0.526 |  |  | 0.5 | inhibitory potency (AC50), CD47-deficient versus WT Jurkat T cells (in words) ([4]; 48 hours): significant decrease in inhibitory potency |
| CCCOc1ccc2nc(NC(=O)OC)[nH]c2c1 [Oxibendazole] | 0.59 | 0.0053 |  |  | 2.05 |  |
| CC(=O)[C@]1(O)Cc2c(O)c3c(c(O)c2[C@@H](O[C@H]2C[C@H](N)[C@H](O)[C@H](C)O2)C1)C(=O)c1ccccc1C3=O [Idarubicin hydrochloride] | 0.662 | 0.148 |  |  | 0.65 |  |
| COC(=O)c1ccc2c(c1)NC(=O)/C2=C(\Nc1ccc(N(C)C(=O)CN2CCN(C)CC2)cc1)c1ccccc1 [Vargatef] | 14.8 | 3.32 | 12.253 | 50.125 | 0.65 |  |
| Cc1c(C(=O)Nc2ccc(N3C[C@@H](C)O[C@@H](C)C3)nc2)cccc1-c1ccc(OC(F)(F)F)cc1 [NVP-LDE-225] | 18.7 | 3.72 |  |  | 0.7 |  |
| Nc1nc(Cl)nc2c1ncn2[C@H]1C[C@H](O)[C@@H](CO)O1 [Cladribine] | 1.05 | 0.148 | 21.67 | 59.738 | 0.85 | inhibitory potency (AC50), CD47-deficient versus WT Jurkat T cells (in words) ([4]; 48 hours): significant decrease in inhibitory potency; maximal inhibition of viability, CD47-deficient versus WT Jurkat T cells (in words) ([4]; 48 hours): significantly decreased maximal inhibition of viability |
| COc1cc2c(cc1-c1c(C)noc1C)ncc1[nH]c(=O)n([C@H](C)c3ccccn3)c12 [I-BET151] | 20.9 | 5.9 |  |  | 0.55 |  |
| COC1=CC(c2cc3ccccc3[nH]2)=N/C1=C\c1[nH]c(C)cc1C [Obatoclax] | 1.48 | 0.372 |  |  | 0.6 |  |
| CO[C@H]1[C@H](O)[C@@H](O)[C@H](n2c3c(Cl)cccc3c3c4c(c5c6cccc(Cl)c6[nH]c5c32)C(=O)NC4=O)O[C@@H]1CO [Rebeccamycin] | 0.743 | 0.148 | 12.004 | 41.489 | 0.7 |  |
| CCc1c2c(nc3ccc(OC(=O)N4CCC(N5CCCCC5)CC4)cc13)-c1cc3c(c(=O)n1C2)COC(=O)[C@]3(O)CC [Irinotecan] | 1.87 | 0.332 | 15.402 | 40.251 | 0.75 |  |

| Structure (SMILES) | AC50 [1] [µM] | AC50 (WT Jurkat cells [2]) [µM] | Maximal Response WT (RLU) (WT Jurkat cells [3]; [5]) | Maximal Response CD47 KO (RLU) [4, 6] [RLU] | Δ LogAC50 CD47KO-WT [4, 7] | other results |
| --- | --- | --- | --- | --- | --- | --- |
| N[C@@H](Cc1ccc(N(CCCl)CCCl)cc1)C(=O)O [Melphalan] | 23.5 | 1.48 |  |  |  | Δ LogAC50 CD47KO-WT [4]: 1.2 |
| C[C@H]1[C@H](OC(=O)CCC(=O)O)O[C@@H]2O[C@@]3(C)CC[C@H]4[C@H](C)CC[C@@H]1[C@@]24OO3 [Artesunate (AS), Artesunate] | 14.8 | 2.35 |  |  | 0.8 |  |
| CCN1CCN(Cc2ccc(-c3cc4c(N[C@H](C)c5ccccc5)ncnc4[nH]3)cc2)CC1 [AEE-788] | 20.9 | 1.87 |  |  | 1.05 |  |
| CCCCN(CCCC)CCC(O)c1cc2c(Cl)cc(Cl)cc2c2cc(C(F)(F)F)ccc12 (stereo not shown) [Halofantrine] | 16.6 | 0.469 |  |  | 1.55 |  |
| COc1ccc(S(=O)(=O)N(C(C)=O)c2ccccc2/C=C/c2cc[n+]([O-])cc2)cc1 [IVX-214] | 1.48 | 0.469 |  |  |  | Maximal Response WT (RLU) (WT Jurkat cells [3]): 8.077 RLU; Maximal Response CD47 KO (RLU) [4]: 32.053 RLU; Δ LogAC50 CD47KO-WT [4]: 0.5 |
| COc1cc2nccc(Oc3ccc(NC(=O)NC4CC4)c(Cl)c3)c2cc1C(N)=O [Lenvatinib] | 16.6 | 2.64 | 5.012 | 51.428 | 0.8 |  |
| Cc1[nH]c(/C=C2\C(=O)Nc3ccccc32)c(C)c1CCC(=O)O [Orantinib] | 16.6 | 1.48 | 6.657 | 36.73 | 1.05 |  |
| CCC1=C[C@@H]2CN(C1)Cc1c([nH]c3ccccc13)[C@@](C(=O)OC)(c1cc3c(cc1OC)N(C)[C@H]1[C@@](O)(C(=O)OC)[C@H](OC(C)=O)[C@]4(CC)C=CCN5CC[C@]31[C@@H]54)C2 [Vinorelbine] | 0.0209 | 0.0066 |  |  | 0.5 | sensitivity of CD47-expressing versus deficient Jurkat T cells ([4]; 48 hours): differing sensitivities |
| CC1(C)CCC(c2ccc(Cl)cc2)=C(CN2CCN(c3ccc(C(=O)NS(=O)(=O)c4ccc(N[C@H](CCN5CCOCC5)CSc5ccccc5)c(S(=O)(=O)C(F)(F)F)c4)cc3)CC2)C1 [Navitoclax] | 5.9 | 0.235 |  |  | 1.4 |  |
| Cc1cc(Nc2nc(N[C@@H](C)c3ccc(F)cc3)c(C#N)cc2F)[nH]n1 [AZ-960] | 14.8 | 0.833 |  |  | 1.25 |  |
| CC[C@H](CC#N)OC(=O)N[C@@H](C)c1cccc(NC(=O)Nc2ccc(-c3cnco3)c(OC)c2)c1 [AVN-944] | 8.33 | 0.372 |  |  | 1.35 |  |
| COC(=O)Nc1nc2ccc(Sc3ccccc3)cc2[nH]1 [Fenbendazole] | 2.09 | 0.59 |  |  | 0.55 |  |
| CC(C)Oc1ccc(C(=O)N[C@H](CNC(=O)CN(C)C)Cc2ccc(-c3cn4cccc([C@H](C)O)c4n3)cc2)cc1Cl [GSK-923295] | 4.69 | 0.264 |  |  | 1.25 |  |
| COc1cc([C@@H]2c3cc4c(cc3[C@@H](O[C@@H]3O[C@@H]5CO[C@@H](c6cccs6)O[C@H]5[C@H](O)[C@H]3O)[C@H]3COC(=O)[C@H]23)OCO4)cc(OC)c1O [Teniposide] | 4.18 | 0.166 |  |  | 1.4 |  |
| Cc1ccc(C(=O)N(CCCN)[C@@H](c2nc3cc(Cl)ccc3c(=O)n2Cc2ccccc2)C(C)C)cc1 [Ispinesib] | 59 | 0.0019 |  |  | 4.5 |  |
| O=C1c2c(O)ccc(O)c2C(=O)c2c(NCCNCCO)ccc(NCCNCCO)c21 [Mitoxantrone] | 1.87 | 0.166 |  |  | 1.05 |  |

Source: patent US11285169B2, “Methods for modulating chemotherapeutic cytotoxicity” (The United States of America, as represented by the …, priority 2013, dated 2022)
